The whole screen tested about 310,000 compounds, of which about 2,200 (0.71%) showed an effect of 50% or more. Effects have a minus sign here. The list shows a part of the results.

This test deals with human ether-à-go-go-related gene (hERG) potassium channel (human, UniProt Q12809). Nature of the test: primary screen, population patch clamp on CHO cells stably expressing hERG.
Sequence of human ether-à-go-go-related gene (hERG) potassium channel (Q12809 whole entry, looked up): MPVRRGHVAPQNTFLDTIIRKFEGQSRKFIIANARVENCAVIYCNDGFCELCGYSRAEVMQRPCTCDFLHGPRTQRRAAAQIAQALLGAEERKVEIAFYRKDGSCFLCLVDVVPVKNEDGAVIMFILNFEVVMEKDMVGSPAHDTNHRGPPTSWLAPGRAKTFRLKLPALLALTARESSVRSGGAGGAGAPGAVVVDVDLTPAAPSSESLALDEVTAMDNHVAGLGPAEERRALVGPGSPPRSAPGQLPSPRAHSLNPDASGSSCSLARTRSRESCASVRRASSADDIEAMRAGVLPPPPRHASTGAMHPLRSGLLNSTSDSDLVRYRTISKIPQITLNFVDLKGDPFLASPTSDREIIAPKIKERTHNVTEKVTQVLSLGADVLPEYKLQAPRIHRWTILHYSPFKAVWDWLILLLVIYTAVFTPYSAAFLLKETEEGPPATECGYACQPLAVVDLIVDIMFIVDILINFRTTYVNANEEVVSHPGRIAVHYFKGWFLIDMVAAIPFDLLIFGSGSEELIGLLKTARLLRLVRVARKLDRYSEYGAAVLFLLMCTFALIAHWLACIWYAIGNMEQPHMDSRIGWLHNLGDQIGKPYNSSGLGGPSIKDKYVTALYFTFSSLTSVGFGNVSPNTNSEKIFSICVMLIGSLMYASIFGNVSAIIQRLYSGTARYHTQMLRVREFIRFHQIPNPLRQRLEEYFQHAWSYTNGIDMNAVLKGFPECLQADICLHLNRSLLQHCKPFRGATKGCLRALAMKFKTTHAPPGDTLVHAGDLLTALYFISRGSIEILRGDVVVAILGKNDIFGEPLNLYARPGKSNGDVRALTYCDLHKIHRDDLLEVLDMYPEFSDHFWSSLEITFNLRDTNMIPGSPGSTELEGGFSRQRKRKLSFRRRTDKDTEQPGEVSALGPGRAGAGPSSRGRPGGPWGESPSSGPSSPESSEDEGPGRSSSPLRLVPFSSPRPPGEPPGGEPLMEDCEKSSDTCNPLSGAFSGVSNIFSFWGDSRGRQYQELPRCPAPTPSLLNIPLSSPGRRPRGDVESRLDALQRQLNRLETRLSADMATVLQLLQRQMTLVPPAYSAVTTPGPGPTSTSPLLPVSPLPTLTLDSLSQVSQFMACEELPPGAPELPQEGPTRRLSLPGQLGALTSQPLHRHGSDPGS
As to `O=C(NC(=S)Nc1ccccc1)c1cc(-c2ccccc2)nc2ccccc12`, the “hERG current change (%, negative = inhibition) at 1uM” value came out at 3.22%.

For the compound `CN1CCN(C(=S)C(=O)Nc2ccccc2)CC1`, the “hERG current change (%, negative = inhibition) at 1uM” value is 7.93%.

For the compound `Cc1cccnc1NC(=O)C1CC(=O)N(c2ccc3c(c2)OCCO3)C1` (stereo not drawn), the “hERG current change (%, negative = inhibition) at 1uM” value worked out at 19.1%.

With `CCn1cc(CN2CCN(Cc3ccsc3)C(CCO)C2)cn1` (stereo not drawn), the “hERG current change (%, negative = inhibition) at 1uM” value turned out to be 2.92%.

Take `CCn1cc(C(=O)O)c(=O)c2cnc(N3CCN(C(=S)Nc4ccc(F)cc4)CC3)nc21`: the “hERG current change (%, negative = inhibition) at 1uM” value is 12.6%.

With `CN(/C(=N/S(=O)(=O)c1cccs1)c1ccccc1)c1ccc(O)cc1`, the “hERG current change (%, negative = inhibition) at 1uM” value is given as 12.5%.

For the compound `Cc1c(Cl)cccc1NC(=O)COC(=O)CCc1nc2ccccc2n1-c1ccccc1`, the “hERG current change (%, negative = inhibition) at 1uM” value is recorded as -8.56%.

In the case of `Cn1c(N)c(C(=O)COC(=O)c2ccccc2NCc2ccco2)c(=O)n(C)c1=O`, the “hERG current change (%, negative = inhibition) at 1uM” value is 9.3%.

As for `CCOC(=O)[C@@H]1[C@H]2COc3ccccc3[C@@H]2N2C(=O)N(c3ccc(Cl)cc3)C(=O)[C@@]12C`, the “hERG current change (%, negative = inhibition) at 1uM” value came out at 3.17%.

On to `O=C(c1ccc(OC2CCN(Cc3ccccn3)CC2)cc1)N1CCC[C@H]1CO`, for which the “hERG current change (%, negative = inhibition) at 1uM” value turned out to be 18.3%.

On to `Cc1nc(NC(=O)c2ccco2)sc1C(=O)O`, for which the “hERG current change (%, negative = inhibition) at 1uM” value is listed as 0.159%.

For `CCC(=O)c1ccc(OCC(=O)OCC(=O)Nc2c(C)n(C)n(-c3ccccc3)c2=O)cc1`, the “hERG current change (%, negative = inhibition) at 1uM” value worked out at 15.9%.

Consider `CC1=NN(C(N)=S)C(=O)C1N=Nc1ccccc1C(=O)O` (stereo not drawn), for which the “hERG current change (%, negative = inhibition) at 1uM” value came to 16.9%.

Take `CCOc1ccccc1-n1c(SC(C)C(=O)NCC2CCCO2)nc2ccccc2c1=O` (stereo not drawn): the “hERG current change (%, negative = inhibition) at 1uM” value is 4.42%.

In the case of `CC(c1ccccc1)C1CC(=O)N(c2ccc([N+](=O)[O-])cc2)C1=O` (stereo not drawn), the “hERG current change (%, negative = inhibition) at 1uM” value is listed as -4.32%.

`COCCC(=O)NC1CCCc2c1cnn2-c1cccc(C)c1C` (stereo not drawn): the “hERG current change (%, negative = inhibition) at 1uM” value turned out to be 10.8%.

As for `Cc1[nH]c2ccc(F)cc2c(=O)c1SC(F)(F)C(F)F`, the “hERG current change (%, negative = inhibition) at 1uM” value is 15.3%.

`Cc1nc(NC(=O)c2ccc(Cl)cc2)sc1-c1csc(Nc2cccc(F)c2)n1`: the “hERG current change (%, negative = inhibition) at 1uM” value worked out at 8.37%.

In the case of `Cc1ccnc2c(N3C(=O)C4C5C=CC(C5)C4C3=O)cccc12` (stereo not drawn), the “hERG current change (%, negative = inhibition) at 1uM” value is given as 3.2%.

With `CCN(CC)CCn1c(C)nc2c(sc3nc4c(cc32)COC(C)(C)C4)c1=O`, the “hERG current change (%, negative = inhibition) at 1uM” value amounted to 2.62%.

In the case of `CNC(=O)N1c2ccccc2C=Cc2ccccc21`, the “hERG current change (%, negative = inhibition) at 1uM” value came out at 15.2%.

Take `CCC(=O)N1C(C(=O)N2CCCC2)CSC1c1ccc(OC)cc1` (stereo not drawn): the “hERG current change (%, negative = inhibition) at 1uM” value is -2.81%.

Take `O=C(O)c1ccc(/C=N/Nc2ncc(C(F)(F)F)cc2Cl)cc1`: the “hERG current change (%, negative = inhibition) at 1uM” value came out at 5.48%.

`COc1cccc(-c2nnc(NC(=O)c3ccco3)s2)c1`: the “hERG current change (%, negative = inhibition) at 1uM” value turned out to be 16.3%.

Regarding `COC(c1ccccc1)c1nnc(CCC(=O)N2CCCCCCC2)o1` (stereo not drawn), the “hERG current change (%, negative = inhibition) at 1uM” value was 0.333%.

In the case of `Cc1ccc2c(c1)CC1(CN2C)C(=O)OC2(CCCCC2)OC1=O`, the “hERG current change (%, negative = inhibition) at 1uM” value turned out to be 15.2%.

As for `CCCN1C2CCCC1CC(NC(=O)c1cccc(Cl)c1)C2` (stereo not drawn), the “hERG current change (%, negative = inhibition) at 1uM” value was -2.98%.

`O=C(CN1CCSCC1)N/N=C/c1ccc(F)cc1F`: the “hERG current change (%, negative = inhibition) at 1uM” value is given as -0.148%.

Take `CCOC(=O)CC12CN3CN(C1)CC(CC(=O)OCC)(C3)C2=O`: the “hERG current change (%, negative = inhibition) at 1uM” value is recorded as 13.7%.

For `O=C(COC(=O)Cn1cnc2ccccc21)NCCC1=CCCCC1`, the “hERG current change (%, negative = inhibition) at 1uM” value turned out to be 2%.

`CC(=O)Nc1sc(-c2ccc(Cl)cc2)nc1-c1ccccc1`: the “hERG current change (%, negative = inhibition) at 1uM” value is on record as 4.66%.

With `CCOC(=O)/C(C#N)=C1/CCCCCN1C`, the “hERG current change (%, negative = inhibition) at 1uM” value worked out at 4.06%.

Turning to `COC(=O)c1ccc(CN2CCN(CC(C)C)C(CCO)C2)cc1` (stereo not drawn), the “hERG current change (%, negative = inhibition) at 1uM” value is on record as 5.8%.

With `CCOCCCNC(=O)Cc1ccc(F)cc1`, the “hERG current change (%, negative = inhibition) at 1uM” value is recorded as 12.7%.

For `O=C(Nc1ccccc1C(=O)Nc1ccccc1)c1cccs1`, the “hERG current change (%, negative = inhibition) at 1uM” value worked out at 6.43%.

As to `O=C(CN(C(=O)CCC(=O)Nc1nccs1)c1ccc2c(c1)OCO2)NCc1ccccc1`, the “hERG current change (%, negative = inhibition) at 1uM” value is recorded as 12.9%.

Turning to `CCc1ccc(C(=O)CN2C(=O)NC3(CCc4ccccc43)C2=O)cc1` (stereo not drawn), the “hERG current change (%, negative = inhibition) at 1uM” value is listed as 9.06%.

Take `CCCN1Cc2cccc(C(=O)NC3CCCC3)c2C1=O`: the “hERG current change (%, negative = inhibition) at 1uM” value was found to be 5.06%.

Consider `Cc1ccc(NS(=O)(=O)c2c(C)[nH]c(C)c2C(=O)N2CCCC2)cc1`, for which the “hERG current change (%, negative = inhibition) at 1uM” value is 11.6%.

Turning to `Cc1ccc(N2CCN(S(=O)(=O)c3ccc(-n4cnnn4)cc3)CC2)c(C)c1`, the “hERG current change (%, negative = inhibition) at 1uM” value amounted to 22%.

Take `Cc1cccc2nc(CSc3ccc(Cl)cc3)cn12`: the “hERG current change (%, negative = inhibition) at 1uM” value was determined as 4.27%.

On to `CC(C)Cn1c(CCNC(=O)c2ccco2)nc2ccccc21`, for which the “hERG current change (%, negative = inhibition) at 1uM” value is on record as 2.29%.

Turning to `Cc1ccc(OCC(=O)NNC(=O)c2cc3ccccc3o2)cc1`, the “hERG current change (%, negative = inhibition) at 1uM” value is given as 10.9%.

In the case of `CCOC(=O)c1c(-c2ccc(C)cc2)csc1NC(=O)c1cccc(N2C(=O)CCC2=O)c1`, the “hERG current change (%, negative = inhibition) at 1uM” value is given as 13.7%.

On to `Cc1ccc(C2=NC(C)(C)N=C2SCC(=O)Nc2ccc(Cl)cc2)cc1`, for which the “hERG current change (%, negative = inhibition) at 1uM” value was -6.04%.

The values above are taken from article PMC4336329 (PLoS ONE, 2015).
